Assay results as given in the supplement of paper PMC10126150.
Sequences with one replicate were seen in a single cluster, so their values are uncertain.

Tested on: ATP
Assay: switch fluorescence ratio, 500 uM ATP over buffer (Cy3 cluster intensity, sum of 5 cycles each) (fold (ratio)); higher = stronger signal-on switching upon ATP binding; sequences stand for … in TCGTCGGCAGCGTCAGATGTGTATAAGAGACAGTTTTTTTTTTTTTTTTTTTTTTTTT…TC
Details: aptamer strand: ATP DNA aptamer (quencher-CACCTGGGGGAGTATTGCGGAGGAAGG + anchor), 100 nM annealed; ATP concentration: 500 uM; one replicate
Method in brief: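 Clusters with intensities outside 100-1000 RFU were excluded. The remaining Cy3-labelled switching-strand clusters on a modified Illumina MiSeq flow-cell had been annealed to 100 nM quencher-labelled ATP aptamer and imaged in selection buffer, then after 15 min with 500 uM ATP at 22 °C, for five cycles separated by NaOH stripping and re-annealing. The fluorescence ratio, averaged per switch-domain sequence, is each cluster's summed target-cycle Cy3 intensity over its summed buffer-cycle Cy3 intensity.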
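Further: ATP exposure 15 min at 22 °C before imaging.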

Sequence | switch fluorescence ratio
GGTGGTCCCA | 0.949
TGGGAGAACG | 0.972
TACCATCATT | 0.994
TGAAACGTTA | 1.09
ATAAATTCGC | 0.946
CTGTATAGTG | 0.959
TAGGGGACAT | 0.962
ATGTATCGGA | 0.988
AAGTGGTGAG | 0.991
CATTAAATGT | 1.01
GTGATTAGTC | 1
CCGGGACTCG | 1.02
GGTTGAAC | 0.98
GTCTGCTCTT | 1.01
TTTCACCGTG | 1.05
CAGAGTAGTT | 1.03
AAGGGTCCAA | 1.07
GATGTAGACC | 0.982
GGTTTCAAGC | 1.03
AGGTTTCAGT | 1.01
ATGTTCGGTT | 0.963
ATTCATCCAC | 1.19
GGTTCGATAA | 1.01
ATGATGCAAA | 1.02
ATGAGTGATC | 1.04
AACGGTCGAC | 0.995

Sequence | switch fluorescence ratio
GTATTGTAGA | 1.01
TGGTCCACCT | 1.07
AAAAACTGAT | 1.19
CGGGTTCGGT | 1
TAACGCGGCT | 1.04
GTTTCTAGGG | 1.02
CGGCGAGGTA | 0.98
GGTTACGGCC | 1.09
CCAACCAGTG | 2.33
GCATATACTG | 2.17
AAGGAGGTAC | 1
ATCGGGCTTC | 0.971
ATGTACACTC | 1.03
GAATATTGGT | 0.99
ATCATCTACG | 1.02
TACGTAAAT | 1.94
CCATGCTGGG | 1.03
TCGGGGCGC | 0.938
TAAATAATAC | 1.1
GCTAATTGTT | 1.01
TATCTTTAGA | 1.04
CCACAAGCAG | 2.46
TAGTCCGGAG | 0.966
CTAGCCGGTG | 0.987
TATAGGTTAG | 0.958
CAAATCGGAG | 0.972

Sequence | switch fluorescence ratio
CATAAAAGTC | 0.952
AGTAAAAA | 0.948
TGGGGTCGTT | 0.968
ACTCCAGGTC | 1.71
AATACGCCTT | 1.03
TCCAGGGACG | 1.06
TATGCTTTGT | 1.06
TTTGTGGTAA | 0.997
CAGTGTGATC | 1.05
CCTAGGAAAG | 1.04
GGGGCTCTTC | 0.958
AGCAGAATGC | 1.01
CTAACCATCA | 1.05
TTGCCCCAAA | 0.981
GGATTATCAT | 0.961
CGAGCGTAGT | 0.994
GGTTAATAG | 0.988
TACGGAGGCT | 1.03
ACCCAGGAAC | 1.11
TCCAGATCTG | 1.01
CAAAGCGCAG | 1.02
TGCAGAGTGG | 1.05
AGGTTTGAAG | 1.01
TGACTCGAAG | 1.02
CCACGGAGTC | 1.1
CGAAGGGTAC | 1.85

Sequence | switch fluorescence ratio
GAGTTGGCGT | 0.98
CAAACGGGAT | 1.09
ACATGTATAA | 1.03
ATGTGCACGC | 0.972
GCAAACACAT | 0.976
GACCTTTCAG | 1.01
CAGATCTACC | 1.05
ACCCCCAGTA | 1.08
GGTAGTTCGT | 0.987
GGATCGAACT | 1.01
AATAATCACT | 1.04
TTTTCACGCT | 0.976
GATGATCTCA | 0.976
CAAAAGACCA | 0.987
CTAAAATTGT | 0.997
TTCAATTATT | 0.986
ACTGACAGTC | 1.19
TGAACATTGT | 1.09
CAGGGAGATG | 0.985
ACGGTCGCCG | 1.01
ACAGAGGGGA | 1.03
TAAAAAGTGA | 0.936
AATGCCTTGT | 1
CCGGCCTAAT | 1.12
TTAGATCCGG | 1.03
AGAAGGAAAT | 1.01

Sequence | switch fluorescence ratio
TTCCAAGTAG | 1.06
TTGATCTGGG | 0.98
GCAATTGCGA | 1.04
TCTGAACGGA | 1.17
AGGGTCTGTG | 0.981
ATGATGGAGT | 0.983
ATTTCGTGGC | 0.991
GGAGAGTCAG | 1.02
ATTTAGAATA | 0.989
GGGCTGCTAT | 0.942
CTCTTTATAA | 1.01
AAGTACACAC | 1.28
TACCATGGGT | 1.02
CAGTAAAGGT | 0.981
AGACCGGGTA | 1.01
TCAGTTAAAG | 1.01
CGAAGAATTT | 0.99
ATCGTCACTA | 1
TTTAATATCA | 1.03
CATACTTTAA | 1.08
TCAGCAAAGA | 4.32
GAAAGGGAGG | 0.997
CCGTCTAGTC | 1.25
CAGAGGATGG | 1
TGTACTTTA | 1.04
GGCTCGTCTG | 1.07

Sequence | switch fluorescence ratio
CTGATTGCTC | 1.07
TGATTCAGG | 1.02
CGTACGATG | 1.01
AAAGAGACAA | 1
TTTACCATAT | 1.02
AATTGTCCCG | 0.991
GGGCGCGTTG | 1
TATTGATCG | 1.02
AACAGGCGC | 0.957
TGGGTAGGG | 0.97
GCGAGCATTC | 1.17
GGAAATCAAT | 0.966
GGCCGATACG | 1.03
TTTGCGATTA | 0.957
CGGTCGAGGC | 0.962
ACCAGAGCCG | 1.31
CTTATTTCTC | 0.96
CGGCGGTG | 1
TCAGGTAAGG | 0.989
TAGCTAAAGG | 1.03
ACCTTGGCGG | 1.02
AGGATATTGT | 1.02
ACACTTGG | 1.05
TAAATTTAAA | 0.96
ACGCTATGTT | 1.14
TGTGTTCATT | 1.03

Sequence | switch fluorescence ratio
GAGTCGTGGG | 1.01
GCCTGGGAAC | 0.979
TGCTGACCGT | 1.01
ATTGTCGTTT | 1.01
ATTATGAGC | 1.02
ACCGAAATCG | 1.05
TAAGTCGAAC | 1
TATATTTGAC | 0.972
AACATCGTGG | 0.988
GGAGATGGGT | 0.997
AATGTATTTG | 1.02
AAGTATAGTA | 0.937
GATGTGGAAC | 0.981
TCAAACTCAG | 1.02
AATTAGCGG | 0.995
CAGTGATACT | 1.91
TGTCTTTCCC | 0.996
GACATGCGG | 1.07
AGTTTAGTTG | 1.02
TGTGACGCGC | 1.27
AAATCGAATA | 1.04
TGAATTGGCT | 1.02
GACTTGGAAG | 0.994
ACAGTCTGAA | 0.957
ACTCCTATCA | 1.09
GGATTGCA | 1.01

Sequence | switch fluorescence ratio
TCCATCAGAA | 1.01
TTTATCATGT | 1.03
AAATGTAGTT | 1
AGGTGGTC | 0.928
TGGGTGAGTG | 0.929
GTTTGAACTC | 1.02
AATAGAGGCT | 0.984
ACTCTCGGCT | 1.07
GGTCACAAAT | 0.994
TACGCCGATT | 1.06
GATACTACGC | 1.32
TCACGCTTG | 1.02
AGATGTGTTG | 1
TACCGCGTTT | 0.967
CAGGTCACAC | 1.03
GATAAAGCAG | 1.04
TCCTGAGGGG | 1.01
CCCCCTCTTG | 1.12
CGATGTGTCG | 0.935
